# Inconclusive means that the source gave no clear call. Such entries were picked first, then a sample of the others. For some assays here: Potencies of inconclusive entries are left out as doubtful fits. Activity calls are given as the source filed them. Unless noted, calls follow the shape of the dose curve; as a rule, active = well fitted curve in the direction sought with a large enough effect in the repeat runs; inconclusive = weak or mixed curves; inactive = no such curve, though single readings can be large; an effect the other way counts as inactive or inconclusive.
# Tests used:
# [1] = qHTS assay to identify small molecule antagonists of the thyroid receptor (TR) signaling pathway (AID 743065); also: potency is read from the fitted curve at half-maximal effect; nearly all actives have a fitted effect of over 55% in size
# Outline: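 GH3.TRE-Luc rat pituitary cells (two TREs driving luciferase) were dosed with compound, then stimulated with 1 nM T3 (final) for 23.5 h at 37 C. ONE-Glo luminescence was the read-out, with CellTiter-Fluor fluorescence as the cytotoxicity counter-screen.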
# [2] = molecular target: Estrogen receptor (Homo sapiens) (UniProt P03372); test: qHTS assay to identify small molecule agonists of the estrogen receptor alpha (ER-alpha) signaling pathway using the BG1 cell line (AID 743079); conditions: BG1Luc4E2 cells, ERE-luciferase agonist, 22 h; series mostly up to 70.3 µM; also: potency is read from the fitted curve at half-maximal effect; nearly all actives have a fitted effect of over 20% in size
# Sequence of UniProt P03372 (P03372 whole entry, looked up): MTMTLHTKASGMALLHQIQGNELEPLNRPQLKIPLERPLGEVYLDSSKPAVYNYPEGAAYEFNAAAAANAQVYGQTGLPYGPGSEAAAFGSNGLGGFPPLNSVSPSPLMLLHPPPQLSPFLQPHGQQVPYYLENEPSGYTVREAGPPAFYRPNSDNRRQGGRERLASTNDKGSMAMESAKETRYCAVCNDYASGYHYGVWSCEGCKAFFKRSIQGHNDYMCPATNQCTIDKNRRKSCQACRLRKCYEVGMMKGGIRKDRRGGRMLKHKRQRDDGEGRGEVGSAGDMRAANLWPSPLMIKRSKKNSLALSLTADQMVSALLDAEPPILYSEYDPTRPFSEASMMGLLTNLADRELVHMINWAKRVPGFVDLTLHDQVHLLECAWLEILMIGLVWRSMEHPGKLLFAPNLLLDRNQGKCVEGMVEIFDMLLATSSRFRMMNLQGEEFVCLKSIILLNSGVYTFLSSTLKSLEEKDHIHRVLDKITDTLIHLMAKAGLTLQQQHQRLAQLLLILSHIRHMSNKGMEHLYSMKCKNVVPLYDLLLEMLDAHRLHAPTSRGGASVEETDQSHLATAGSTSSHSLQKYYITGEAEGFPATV
# [3] = qHTS assay to identify small molecule antagonists of the estrogen receptor alpha (ER-alpha) signaling pathway using the BG1 cell line - cell viability counter screen (AID 743081); conditions: BG1Luc4E2 viability, CellTiter-Fluor, 22 h; series mostly up to 70.3 µM;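 also: compound given together with 17beta-estradiol as the ER stimulus; potency is read from the fitted curve at half-maximal effect; nearly all actives have a fitted effect of over 45% in size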
# [4] = qHTS assay to identify small molecule antagonists of the retinoid acid receptor (RAR) signaling pathway - cell viability counter screen (AID 1159551); also: nearly all actives have a fitted effect of over 35% in size
# Outline: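 Viability of C3RL4 cells is quantified from ATP by luminescence after 6 h treatment at 37 C with compounds and 1 uM retinol.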
# [5] = A CellTox Green Cytotoxicity Assay to monitor cytotoxicity in HepG2 cells - 40 hour (AID 1224879); also: potency is read from the fitted curve at half-maximal effect; nearly all actives have a fitted effect of over 40% in size
# Outline: (§1)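 Fluorescent DNA-binding dye, 600 HepG2 cells/well, 5 h preincubation then compound in DMSO; same plates read at 0–40 h, 37 C.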
# [6] = A CellTox Green Cytotoxicity Assay to monitor cytotoxicity in HepG2 cells - 32 hour (AID 1224883); also: nearly all actives have a fitted effect of over 50% in size; also: potency is read from the fitted curve at half-maximal effect
# Outline: as §1
# [7] = molecular target: Luciferin 4-monooxygenase (Photinus pyralis) (UniProt P08659); test: qHTS assay to identify small molecule inhibitors of firefly luciferase (AID 1224835); also: potency is read from the fitted curve at half-maximal effect; nearly all actives have a fitted effect of over 25% in size
# Sequence of UniProt P08659 (P08659 whole entry, looked up): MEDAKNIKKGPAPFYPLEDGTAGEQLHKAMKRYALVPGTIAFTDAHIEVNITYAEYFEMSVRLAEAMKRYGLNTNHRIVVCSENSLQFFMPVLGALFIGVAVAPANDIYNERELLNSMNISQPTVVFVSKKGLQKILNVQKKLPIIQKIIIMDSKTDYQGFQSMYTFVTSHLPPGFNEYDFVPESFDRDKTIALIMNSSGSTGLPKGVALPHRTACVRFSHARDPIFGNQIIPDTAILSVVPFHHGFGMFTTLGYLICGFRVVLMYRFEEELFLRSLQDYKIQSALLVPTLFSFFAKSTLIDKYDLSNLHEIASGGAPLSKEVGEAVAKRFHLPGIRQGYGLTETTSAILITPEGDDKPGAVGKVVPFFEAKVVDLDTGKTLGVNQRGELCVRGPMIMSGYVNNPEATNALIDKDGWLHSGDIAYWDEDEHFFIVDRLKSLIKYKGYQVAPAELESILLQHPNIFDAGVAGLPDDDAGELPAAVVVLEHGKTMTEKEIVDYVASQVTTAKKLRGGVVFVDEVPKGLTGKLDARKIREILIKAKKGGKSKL
# Outline: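 Biochemical qHTS: compounds run as interplate titrations against purified firefly enzyme, with D-luciferin and ATP each at its KM concentration. Light output recorded by CCD imaging.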
# [8] = molecular target: Acetylcholinesterase (Homo sapiens) (UniProt P22303); test: Acetylcholinesterase (AChE) small molecule antagonists: fluorescence cell-based qHTS assay (AID 1347398; calls by dose curve; also: nearly all actives have a fitted effect of over 50% in size); conditions: Potency: AChE activity
# Sequence of UniProt P22303 (P22303 whole entry, looked up): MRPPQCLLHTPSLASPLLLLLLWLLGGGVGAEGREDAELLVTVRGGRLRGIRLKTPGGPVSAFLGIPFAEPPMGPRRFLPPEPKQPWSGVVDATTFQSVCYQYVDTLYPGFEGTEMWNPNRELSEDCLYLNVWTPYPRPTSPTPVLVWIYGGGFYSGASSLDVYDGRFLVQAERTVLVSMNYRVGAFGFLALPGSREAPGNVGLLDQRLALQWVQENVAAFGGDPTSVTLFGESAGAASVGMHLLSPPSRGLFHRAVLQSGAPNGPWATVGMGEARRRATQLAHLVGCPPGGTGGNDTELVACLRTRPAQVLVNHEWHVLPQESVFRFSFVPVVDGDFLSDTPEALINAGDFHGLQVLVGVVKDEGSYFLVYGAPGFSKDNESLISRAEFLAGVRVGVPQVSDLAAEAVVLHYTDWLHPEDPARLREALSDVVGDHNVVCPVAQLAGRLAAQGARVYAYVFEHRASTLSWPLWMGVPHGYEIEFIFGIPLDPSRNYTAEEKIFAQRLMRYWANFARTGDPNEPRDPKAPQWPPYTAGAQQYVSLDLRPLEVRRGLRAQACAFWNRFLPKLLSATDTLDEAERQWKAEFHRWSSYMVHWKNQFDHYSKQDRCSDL
# Outline: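 Cells (SH-SY5Y) attached overnight, were dosed with compound or DMSO vehicle for 30 min at 37 C, and then incubated 40 min at room temperature with acetylthiocholine and Thiolite Green; green fluorescence indexed AChE activity.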
# [9] = molecular target: Cytochrome P450 3A4 (Homo sapiens) (UniProt P08684); test: Cytochrome P450 Family 3 Subfamily A Member 4 (CYP3A4) small molecule antagonists: luciferase reporter qHTS assay (AID 1671201); also: potency is read from the fitted curve at half-maximal effect; nearly all actives have a fitted effect of over 50% in size
# Sequence of UniProt P08684 (P08684 whole entry, looked up): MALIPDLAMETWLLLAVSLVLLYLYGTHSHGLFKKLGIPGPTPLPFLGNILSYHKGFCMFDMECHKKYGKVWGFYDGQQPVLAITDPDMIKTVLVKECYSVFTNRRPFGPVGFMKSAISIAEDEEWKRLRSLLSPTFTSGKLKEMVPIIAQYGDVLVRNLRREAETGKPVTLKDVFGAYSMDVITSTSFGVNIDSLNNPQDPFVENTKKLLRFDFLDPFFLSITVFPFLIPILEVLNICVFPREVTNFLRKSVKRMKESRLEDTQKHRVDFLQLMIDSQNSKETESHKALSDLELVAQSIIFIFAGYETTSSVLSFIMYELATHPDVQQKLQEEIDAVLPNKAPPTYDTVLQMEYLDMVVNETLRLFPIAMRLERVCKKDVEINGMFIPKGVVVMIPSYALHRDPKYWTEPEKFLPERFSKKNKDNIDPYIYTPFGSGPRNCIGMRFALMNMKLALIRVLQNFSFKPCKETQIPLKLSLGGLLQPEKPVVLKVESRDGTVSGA
# Outline: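 Room-temperature assay throughout: 10 min compound–enzyme/substrate preincubation, 1 h reaction after NADPH regeneration solution, 20 min detection. Luciferin formed from proluciferin substrate is quantified by luminescence.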
# [10] = A CellTox Green Cytotoxicity Assay to monitor cytotoxicity in HEK293 cells - 32 hour (AID 1224881); also: potency is read from the fitted curve at half-maximal effect; nearly all actives have a fitted effect of over 40% in size
# Outline: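 Homogeneous no-lysis format: HEK293 cell suspension mixed with CellTox Green reagent, seeded, incubated 5 h at 37 C/5% CO2, then dosed by pintool with compound in DMSO.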
# Tags tell the direction and shape of the fitted curve.
compound,measurement,setting,value
c1ccc2nc(N3CCNCC3)ccc2c1,Potency,[1],active: 29.8 µM
same,Potency,[2],"inconclusive [activator, single point]"
same,Potency,[3],"inconclusive [cytotoxic, partial curve]"
same,Potency,[4],inactive
same,Potency,[5],"inconclusive [activator, single point]"
same,Potency,[6],"inconclusive [activator, single point]"
CNC(=O)N(C)c1nc2ccccc2s1,Potency,[7],active: 35.6 µM
same,Potency,[8],inactive
same,Potency,[9],"inconclusive [inhibitor, partial curve, poor fit]"
CNC(=O)Oc1c(C(C)(C)C)cc(C)cc1C(C)(C)C,Potency,[10],"inconclusive [activator, partial curve, poor fit]"
same,Potency,[6],inactive
